This passage reports Kd results from article PMC3873459 (PLoS Pathogens, 2013).

Assay [1] deals with T1, pfiT, tag-less (GST removed with PreScission protease) (Pseudomonas fluorescens).
T1 construct: also called recombinant pfiT; native pfiT; not shown: GST, N-terminal, cleaved
Put plainly: AUC. The conditions noted are these: both partners purified.

The target in the next assay is GST-pfiT fusion protein (Pseudomonas fluorescens). Kind of assay: pull-down. The conditions noted are these: both partners purified.

B1: recombinant HLA-DR1 protein bound to a hemagglutinin (HA) peptide (peptide-MHC)
chain 1: not shown
chain 2: TRPRFLWQLKFECHFFNGTERVRLLERCIYNQEESVRFDSDVGEYRAVTELGRPDAEYWNSQKDLLEQRRAAVDTYCRHNYGVGESFTVQRRVEPKVTVYPSKTQPLQHHNLLVCSVSGFYPGSIEVRWFRNGQEEKAGVVSTGLIQNGDWTFQTLVMLETVPRSGEVYTCQVEHPSVTSPLTVEWRA
chain 3: PKYVKQNTLKLAT
As for B1, the Kd (usually the equilibrium constant for the complex coming apart) was 17 µM in assay [1] and about 13.5 µM with GST-pfiT fusion protein.
